Assay results published in PubChem BioAssay AID2675 (National Center for Advancing Translational Sciences (NCATS), 2010).
Out of some 280,000 compounds screened, about 100 (0.036%) were called active. The shares of active, inactive and inconclusive entries below differ from those in the screen. Calls follow the shape of the dose curve; as a rule, active = well fitted inhibition curve with a large enough effect in the signal ratio, with a control signal flat (not every such curve was filed as active); inconclusive = small, poorly fitted or top-dose-only effect, or effect the other way, or a change in a side signal; inactive = no such curve, though single readings can be large or run the other way; the % refers to the signal ratio. Potencies of inconclusive entries are doubtful fits and often do not repeat. “Side channel” marks fits to a control or component signal instead of the main read-out.

molecular target: Muscleblind-like protein 1 (Homo sapiens) (UniProt Q9NR56); assay: qHTS Assay for Inhibitors of MBNL1-poly(CUG) RNA binding; conditions: TR-FRET MBNL1-His/biotin-(CUG)12 binding, 665/545 ratio; series mostly up to 57.5 µM
In short: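 TR-FRET between His-tagged MBNL1 and biotin-(CUG)12 RNA, detected with Tb anti-His antibody (0.055 ng/ul) and streptavidin-XL665 (5 nM), 60 min at room temperature. Compounds titrated 92 nM to 58 uM; 665/545 nm ratio normalized to buffer and complex controls.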
Potency is read from the fitted curve at half-maximal effect; tags tell the direction and shape of the fitted curve or compound fluorescence and quenching.

Chain of UniProt Q9NR56 (Q9NR56 whole entry, looked up): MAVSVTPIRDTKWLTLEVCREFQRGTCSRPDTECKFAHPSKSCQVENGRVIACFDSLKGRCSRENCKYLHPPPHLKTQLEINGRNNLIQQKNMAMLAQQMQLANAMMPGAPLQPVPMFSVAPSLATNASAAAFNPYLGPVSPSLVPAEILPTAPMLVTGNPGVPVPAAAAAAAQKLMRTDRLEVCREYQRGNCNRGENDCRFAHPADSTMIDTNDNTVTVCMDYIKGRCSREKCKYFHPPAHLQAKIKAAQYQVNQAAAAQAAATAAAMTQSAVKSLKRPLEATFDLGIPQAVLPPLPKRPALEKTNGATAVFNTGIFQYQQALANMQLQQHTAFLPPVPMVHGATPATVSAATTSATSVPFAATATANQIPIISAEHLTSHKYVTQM

SMILES | Potency
CC(C)(C)Nc1c(-c2ccc(O)cc2)nc2ccc(Cl)cn12 | inconclusive: 14.1 µM [quencher, side channel, partial curve]
Cc1ccc(-c2c(C)sc(=NC(=O)c3ccco3)n2C)cc1 | inconclusive: 39.8 µM [fluorescent, side channel, single point]
Cc1ccc(-c2nc3ccccc3n2C)o1 | inactive
COc1ccc(N(C(=O)Cc2cccs2)C(C(=O)NC2CCCC2)c2ccncc2)cc1 (configuration not stated) | inactive
COc1cccc(C(=O)O/N=C(\N)c2ccc([N+](=O)[O-])cc2)c1OC | inconclusive: 7.94 µM [quencher, side channel, partial curve]
O=C(COc1nc2ccccc2nc1N1CCOCC1)N1CCc2ccccc21 | inactive
COc1ccccc1CCCNC(=O)C1CCC(=O)N(Cc2ccccc2F)C1 (configuration not stated) | inconclusive: 0.794 µM [fluorescent, side channel, single point]
Cc1cccnc1NC(=O)CSc1nnc(CNC(=O)c2cccc([N+](=O)[O-])c2)n1C | inconclusive: 15.8 µM [quencher, side channel, partial curve, poor fit]
O=[N+]([O-])c1ccccc1CCc1cnc(Cl)s1 | inactive
Cc1ccc(-c2cn(S(=O)(=O)c3cccc4nsnc34)nc2N)cc1 | inconclusive: 10 µM [quencher, partial curve]
Cc1ccccc1C(=O)NN(C)c1nc2ccccc2nc1C(F)(F)F | inactive
Cc1cc(=O)n2[nH]c(N)c(N=Nc3ccccc3)c2n1 | inconclusive: 28.2 µM [quencher, side channel, partial curve]
Cc1cc(CO)nn1-c1ccc([N+](=O)[O-])cc1 | inconclusive: 14.1 µM [quencher, partial curve]
CCOC(=O)/C(=C/c1ccccc1)NC(=O)c1ccco1 | inconclusive: 0.251 µM [fluorescent, side channel, full curve]
CCOC(=O)c1noc(C)c1C(=O)Nc1cccc(F)c1 | inconclusive: 5.01 µM [quencher, side channel, single point]
COC(=O)C1=C(C)N(Cc2ccccc2)C(=NCc2cc(OC)c(OC)c(OC)c2)N[C@H]1c1ccc(Br)cc1 | inactive
Cc1nc(-c2cccnc2)sc1C(=O)Nc1ccc(Cl)cc1 | inconclusive: 25.1 µM [quencher, side channel, partial curve, poor fit]
Cn1cc(Br)c(C(=O)n2cc(Br)cn2)n1 | inactive
CCCc1nnc(N2C(=O)c3cccc4cccc(c34)C2=O)s1 | inconclusive: 8.91 µM [quencher, side channel, partial curve]
O=C(NC1CCNCC1)C1CC1 | inactive
COc1ccc2cc3c(N)nn(C(=O)Cc4c[nH]c5ccccc45)c3nc2c1 | inconclusive: 11.2 µM [quencher, side channel, partial curve]

SMILES | Potency
Cc1ccc([N+](=O)[O-])cc1NC(=O)c1cccs1 | inconclusive: 10 µM [quencher, side channel, partial curve]
Cc1ccc(Cl)cc1N1CCN(C(=O)CSc2nnc3n2C(C)(C)Cc2ccccc2-3)CC1 | inconclusive: 3.16 µM [quencher, side channel, single point]
CC(=O)Nc1cccc2c1C(=O)N(c1cccc(C)c1)C2=O | inconclusive: 31.6 µM [quencher, side channel, partial curve]
COCCNc1c([N+](=O)[O-])c(=O)n(-c2ccccc2)c2ccccc12 | inconclusive: 15.8 µM [quencher, side channel, partial curve, poor fit]
O=C(Cn1ncc2c3ccccc3n(Cc3ccccc3)c2c1=O)N1CCN(c2ccccn2)CC1 | inactive
CC(=O)OCC(=O)Nc1ccc(N=Nc2ccccc2)cc1 | inconclusive: 14.1 µM [quencher, partial curve]
COc1ccccc1NC(=O)c1ccc(-n2ccnc2)c([N+](=O)[O-])c1 | inconclusive: 15.8 µM [quencher, side channel, partial curve]
Cc1c(C(=O)O)cnc2c([N+](=O)[O-])cnn12 | inconclusive: 25.1 µM [quencher, side channel, partial curve]
Cc1cc(NC(=O)c2cc3n(n2)C(C(F)(F)F)CC(c2ccc(Cl)c(Cl)c2)N3)no1 (configuration not stated) | inconclusive: 39.8 µM [quencher, side channel, single point]
C=CCn1c2ccccc2c2n[nH]c(=S)nc21 | inconclusive: 17.8 µM [quencher, side channel, partial curve]
Cc1noc(C)c1C(=O)N1CCCC(C(=O)c2cccc(OC(C)C)c2)C1 (configuration not stated) | inactive
CCn1c(SCC(=O)N2CCCCCC2)nc2ccccc2c1=O | inactive
CC(=O)c1ccc(Nc2cc(C)nc3c(C)cc(C)cc23)cc1 | inconclusive: 25.1 µM [quencher, single point]
N#C/C(=N/Nc1ccc(S(=O)(=O)N2CCOCC2)cc1)C(N)=O | inconclusive: 22.4 µM [quencher, side channel, partial curve]
COc1ccc(C(=O)O)cc1NC(=S)NC(=O)C(c1ccccc1)c1ccccc1 | inactive
NS(=O)(=O)c1ccc(NN=C2CCN(Cc3ccccc3)CC2)c([N+](=O)[O-])c1 | inconclusive: 15.8 µM [quencher, partial curve]
COc1ccccc1C(=O)c1c(C)c(CCC#N)n2ccccc12 | inconclusive: 28.2 µM [quencher, side channel, single point]
O=C(CNS(=O)(=O)c1ccc([N+](=O)[O-])cc1)N/N=C/c1ccc(O)cc1O | inconclusive: 14.1 µM [quencher, partial curve]
OCCNc1nc2nonc2nc1NCCO | inconclusive: 39.8 µM [quencher, side channel, partial curve]
Cc1cccc(-n2c(-c3csc(C)c3C)n[nH]c2=S)c1 | inactive
COc1ccc(-n2ccnc(SCC(=O)NC3CCCCC3)c2=O)cc1 | inconclusive: 25.1 µM [quencher, side channel, partial curve]

SMILES | Potency
COC(=O)c1ccc(-c2ccc(/C=N/N3C(=O)C4C5C=CC(CC5)C4C3=O)o2)cc1 (configuration not stated) | inconclusive: 2.51 µM [quencher, side channel, full curve]
O=C1CCN2C=Nc3cccc4ccc1c2c34 | inconclusive: 15.8 µM [quencher, side channel, partial curve]
CCCOc1ccc(CSCCNC(=S)Nc2ccccc2)cc1 | inactive
O=C(c1ccccc1)N1CCN(c2ccc([N+](=O)[O-])cc2-n2cccc2)CC1 | inconclusive: 25.1 µM [quencher, side channel, single point]
COCc1nnc(NC(=O)CCCOc2ccccc2)s1 | inactive
CCOC(=O)c1nn(-c2ccc(C)cc2)c(=O)c2c(N)scc12 | inconclusive: 15.8 µM [quencher, side channel, partial curve]
CCCCNC1=CC(=O)C(=O)c2ccccc21 | inconclusive: 6.31 µM [inhibitor, single point]
O=C(COC(=O)c1ccc([N+](=O)[O-])o1)Nc1cccc(S(=O)(=O)N2CCOCC2)c1 | inconclusive: 63.1 µM [inhibitor, single point]
CCCC1C(C#N)=C(N)Oc2n[nH]c(C(C)(C)C)c21 (configuration not stated) | inactive
Nc1ccc(N2CCCCC2)c2nonc12 | inconclusive: 31.6 µM [quencher, side channel, single point]
Cc1cccc(NC(=O)c2cc([N+](=O)[O-])ccc2N2CCN(C)CC2)c1 | inconclusive: 7.94 µM [quencher, side channel, full curve]
COc1cccc(C2C3=C(CCCC3=O)NC3=C2C(=O)c2ccccc23)c1 (configuration not stated) | inconclusive: 25.1 µM [quencher, side channel, partial curve, poor fit]
O=[N+]([O-])c1ccc(/C=N/NC(=S)Nc2ccc(Cl)cc2Cl)s1 | inconclusive: 39.8 µM [quencher, side channel, partial curve]
O=C(Cc1cc(=O)[nH]c(=O)[nH]1)N1CCN(C(=O)c2ccco2)CC1 | inconclusive: 39.8 µM [fluorescent, side channel, partial curve]
COC(=O)c1ccc(NC(=O)c2ccc3c(c2)C(=O)N(Cc2cccnc2)C3=O)cc1 | inconclusive: 7.94 µM [quencher, side channel, partial curve]
CCOC(=O)Cc1csc(SC(C)C(=O)Nc2ccc(NC(C)=O)cc2)n1 (configuration not stated) | inconclusive: 8.91 µM [quencher, side channel, single point]
O=C(NCCOc1ccccc1)c1ccccc1[N+](=O)[O-] | inconclusive: 17.8 µM [quencher, side channel, partial curve]
C#CCOCCOCCOCCNc1nc(N2CCN(C(=O)Cn3cc(CCCN=C(N)N)nn3)CC2)nc(N2CCN(C(=O)[C@H](C)n3cc(CCCN=C(N)N)nn3)CC2)n1 | inconclusive: 79.4 µM [inhibitor, partial curve, poor fit]
CCCNC(=O)C(=O)Nc1ccc(N(C)C)cc1 | inconclusive: 63.1 µM [inhibitor, single point]
COc1ccc(N2C(=O)CC2(/C=C/c2ccccc2OC)C(=O)NC2CCCC2)cc1 (configuration not stated) | inconclusive: 3.98 µM [quencher, side channel, single point]
